According to PubChem BioAssay AID540317 (National Center for Advancing Translational Sciences (NCATS), 2011):
The whole screen tested about 390,000 compounds, of which about 2,200 (0.56%) were called active. Inconclusive means that the source gave no clear call. Such entries were picked first, then a sample of the others. Calls come from the whole dose curve; as a rule, active = well fitted inhibition curve with a large enough effect; inconclusive = small, poorly fitted or top-dose-only effect; inactive = no such curve, though single readings can be large or run the other way. Potencies of inconclusive entries are doubtful fits and often do not repeat.
Note: nearly all actives have a fitted effect of over 70% in size.
Potency is the fitted concentration of half-maximal effect; tags give direction and shape of the fitted curve.

Each compound was assayed against Chromobox protein homolog 1 (Homo sapiens) (UniProt P83916) (assay: HTS for Inhibitors of HP1-beta Chromodomain Interactions with Methylated Histone Tails). Conditions: AlphaScreen HP1-beta / biotin-H3K9me3 peptide binding; series mostly up to 114 µM; activity change, negative = inhibition: at the top concentration.
Chain of UniProt P83916 (P83916 whole entry, looked up): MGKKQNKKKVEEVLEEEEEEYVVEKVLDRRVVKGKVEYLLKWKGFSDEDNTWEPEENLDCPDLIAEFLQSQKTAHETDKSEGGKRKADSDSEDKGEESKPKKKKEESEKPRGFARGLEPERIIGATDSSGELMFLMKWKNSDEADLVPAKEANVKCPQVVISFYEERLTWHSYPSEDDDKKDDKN
Summary of the method: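 Compound inhibition of the preformed complex between 50 nM HP1-beta and 50 nM biotinylated H3K9me3 peptide was read by AlphaScreen. Buffer was PBS pH 7.4 with 0.01% Tween-20. Incubations ran 30 min at room temperature, with 10 ug/mL donor/acceptor beads.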
With `O=[N+]([O-])c1cccc(/C([O-])=C(/C(=S)Nc2cccc3ccccc23)[n+]2ccccc2)c1` the Potency was inconclusive: 12.6 µM [inhibitor, full curve].
`CCCS(=O)(=O)Nc1c(OC)ccc2c1c(C(=O)OCC)c(C)n2C` was tested, and the Potency was inconclusive: 0.708 µM [inhibitor, full curve, poor fit].
For `CCOC(=O)/C(=N/Nc1ccccc1OC)N1CCCc2ccccc21`, the “activity change, negative = inhibition” value was inactive: 41.3%.
In the case of `COc1ccc(CNCCS(=O)(=O)NN2CCOCC2)cc1`, the “activity change, negative = inhibition” value is reported as inactive: 36.3%.
In the case of `C=CCn1c(SC)nnc1-c1cccc([N+](=O)[O-])c1`, the “activity change, negative = inhibition” value is reported as inactive: 32.6%.
With `CCOc1cc(NC(=S)NCC2CCCO2)c(OCC)cc1NC(=O)c1ccccc1F` (stereo unspecified) the Potency was inconclusive: 31.6 µM [inhibitor, partial curve, poor fit].
`CN1CCC2(CC1)N=C(c1ccc(F)cc1)C(=S)N2C(=O)c1ccccc1` was tested, and the Potency was inconclusive: 17.8 µM [inhibitor, full curve].
In the case of `O=C(NCCc1c[nH]c2ccccc12)c1ccc2nc[nH]c2c1`, the “activity change, negative = inhibition” value is reported as inactive: 13%.
With `CCc1ccc(N2CC(C(=O)OCC(=O)Nc3ccc(C(C)=O)cc3)CC2=O)cc1` (stereo unspecified) the “activity change, negative = inhibition” value was inactive: 48.7%.
For `O=C(NCc1ccccc1)c1cc(-c2cccc(Cl)c2)on1`, the “activity change, negative = inhibition” value was inactive: 30%.
`Cc1ccccc1NC(=S)NCc1ccc2[nH]c3c(c2c1)CCCC3` was tested, and the Potency was inconclusive: 22.4 µM [inhibitor, full curve].
In the case of `CSc1ccc(S(=O)(=O)NCC(=O)OCC(=O)N2CCCCC2C)cc1[N+](=O)[O-]` (stereo unspecified), the “activity change, negative = inhibition” value is reported as inactive: 27.7%.
`CN(CCc1ccccn1)S(=O)(=O)c1ccc(F)cc1` was tested, and the Potency was active: 28.2 µM.
With `COc1ccccc1CCNC(=O)c1ccc2c(c1)c(C)c(C)n2C` the Potency was inconclusive: 50.1 µM [inhibitor, partial curve].
In the case of `C=CS(=O)(=O)c1sc(Cl)c(N2CCOCC2)c1[N+](=O)[O-]`, the Potency is reported as inconclusive: 50.1 µM [inhibitor, partial curve, poor fit].
With `Cc1c(Cl)cccc1NC(=O)c1ccc(-n2ccnc2)nc1` the “activity change, negative = inhibition” value was inactive: 33.2%.
In the case of `Cc1ccc(O)c(C(=O)c2cnc3c(c2)c(-c2ccc(F)cc2)c(C#N)c(=O)n3C)c1`, the “activity change, negative = inhibition” value is reported as inactive: -31.5%.
`CCc1nnc(NC(=O)CN2CCN(c3nc(-c4ccccc4)cs3)CC2)s1` was tested, and the “activity change, negative = inhibition” value was inactive: -10.1%.
In the case of `Cn1nc([N+](=O)[O-])c(C(C#N)c2nc3ccccc3n2C)c(Cl)c1=O` (stereo unspecified), the Potency is reported as inconclusive: 22.4 µM [inhibitor, full curve, poor fit].
In the case of `CCCCCC(=O)Nc1nc(C)c(-c2csc(Nc3cc(Cl)ccc3OC)n2)s1`, the Potency is reported as inconclusive: 12.6 µM [inhibitor, full curve].
In the case of `Cc1cc2c(cc1C)N[C@]1(C[C@H]3CCCC(=O)N4CC[C@@H](C1)[C@@H]34)C(=NC(C)(C)CC(C)(C)C)N2`, the Potency is reported as inconclusive: 25.1 µM [inhibitor, full curve].
For `Cc1ccc(NC(=O)COc2ccc(/C=N\NC(=O)c3cccnc3)cc2)cc1C`, the Potency was inconclusive: 70.8 µM [inhibitor, partial curve].
For `Cc1ccc(-c2c3c([nH]c(=S)c2C#N)CCCC3)o1`, the Potency was inconclusive: 31.6 µM [inhibitor, single point].
With `O=C(NC(=S)N1CCCC1)c1ccccc1Cl` the “activity change, negative = inhibition” value was inactive: 17.9%.
In the case of `COc1ccc(OC)c(/C=N/NC(=O)CN2CCSCC2)c1`, the Potency is reported as inconclusive: 56.2 µM [inhibitor, partial curve, poor fit].
For `CCN(CC(=O)Nc1ccc(NC(C)=O)cc1)C(=O)c1cccc(-n2cccc2)c1`, the Potency was inconclusive: 70.8 µM [inhibitor, partial curve].
`O=C(C1=C(O)C(=O)N(c2ncccn2)C1c1ccc(Cl)c(Cl)c1)c1ccco1` (stereo unspecified) was tested, and the Potency was inconclusive: 50.1 µM [inhibitor, partial curve].
With `c1ccc(COc2nsnc2N2CCOCC2)cc1` the Potency was inconclusive: 22.4 µM [inhibitor, partial curve, poor fit].
In the case of `CCOc1ccc(CN2CCN(C(=O)c3cccc(F)c3)CC2)cc1`, the Potency is reported as inconclusive: 39.8 µM [inhibitor, full curve].
In the case of `Cc1cc(C(=O)N/N=C/c2ccc(O)c([N+](=O)[O-])c2)c(C)n1-c1ccc(F)cc1`, the Potency is reported as inconclusive: 70.8 µM [inhibitor, single point].
`O=C(NCc1ccc2c(c1)OCO2)c1ccc(N2CCCCCC2)c([N+](=O)[O-])c1` was tested, and the Potency was inconclusive: 25.1 µM [inhibitor, single point].
In the case of `COc1cccc(C(=S)N2CCCC2)c1OC`, the Potency is reported as inconclusive: 17.8 µM [inhibitor, partial curve, poor fit].
With `CCCCn1c(N)c(N(CCOC)C(=O)c2cc(-c3ccc(F)cc3)nc3ccccc23)c(=O)[nH]c1=O` the “activity change, negative = inhibition” value was inactive: 35.9%.
`CC1CCCC(=C\c2ccccc2)/C1=N/O` (stereo unspecified) was tested, and the Potency was inconclusive: 39.8 µM [inhibitor, single point].
In the case of `COc1ccccc1-c1nnc(N)s1`, the “activity change, negative = inhibition” value is reported as inactive: 20.3%.
With `COc1ccc(-c2ccc(C3C4C=CCC(C)C4C(=O)N3Cc3ccccc3)c(F)c2)cc1OC` (stereo unspecified) the “activity change, negative = inhibition” value was inactive: -19.8%.
For `COc1cc(CNc2ccc3c(c2)CCC3)cc(OC)c1O`, the Potency was active: 31.6 µM.
For `COc1ccccc1Nc1c2c(nc3ccc(NC(=O)/C=C/c4cccc(OC)c4OC)cc13)CCCC2`, the “activity change, negative = inhibition” value was inactive: -5.68%.
`CNC(=O)c1c(NC(=O)CCS(=O)(=O)c2ccc(Cl)cc2)sc2c1CCN(C(=O)OC)C2` was tested, and the “activity change, negative = inhibition” value was inactive: 12.2%.
For `Nc1c(SCCC(=O)O)ccc2c1C(=O)c1ccccc1C2=O`, the Potency was inconclusive: 35.5 µM [inhibitor, partial curve].
`CN(C)c1ccc(/C=C2/C[N+](C)(C)C/C(=C/c3ccc(N(C)C)cc3)C2=O)cc1` was tested, and the Potency was active: 39.8 µM.
In the case of `O=C(Nc1ccc(Nc2ccccc2)cc1)c1ccc(Br)o1`, the Potency is reported as inconclusive: 63.1 µM [inhibitor, single point].
With `CCOC(=O)c1c(NC(=O)CC2SC(N)=NC2=O)sc2c1CCCC2` (stereo unspecified) the “activity change, negative = inhibition” value was inactive: 1.47%.
`O=C(/C=C/c1ccc(Cl)cc1)N1CCN(c2ccc(Cl)cc2[N+](=O)[O-])CC1` was tested, and the Potency was inconclusive: 11.2 µM [inhibitor, full curve, poor fit].
In the case of `O=C1N(C2CCCC2)C[C@@H]2C[C@@H](c3cccn3-c3ccccn3)N3CCC[C@@]123`, the “activity change, negative = inhibition” value is reported as inactive: 27.4%.
In the case of `O=C1CC(Nc2ccc(N3CCOCC3)cc2)C(=O)N1Cc1ccccc1` (stereo unspecified), the “activity change, negative = inhibition” value is reported as inactive: -20.3%.
